Laboratory results: ChEMBL document CHEMBL1201862, “PubChem BioAssay data set” (2004)

test system: NCI-H322M; test: NCI-60 cell line screen, 48 h

SMILES	GI50
CCCCOc1ccc(NC(=N)Nc2ccc(Cl)cc2)cc1	inactive: 4.22 µM
O=C1/C(=C/c2ccc([N+](=O)[O-])cc2)C(=O)N(c2ccccc2)C1c1ccccc1 (configuration not stated)	inactive: > 10 µM
COc1ccc2c(c1)[n+]([O-])c(C(=O)C/C(=N/OCCCc1ccccc1)C(=O)NC13CC4CC(CC(C4)C1)C3)c(C)[n+]2[O-]	inactive: > 100 µM
CC1(c2cc3c(cc2Br)OCO3)SCCCS1	inactive: 33.2 µM
CC(=O)Nc1cc(C(=O)Nc2cc(C(=O)Nc3cc(C(=O)Nc4cc(C(=O)Nc5cc(C(=O)NCCC(=O)NCCCN(C)C)n(C)c5)n(C)c4)n(C)c3)n(C)c2)n(C)c1	inactive: > 100 µM
[N-]=[N+]=NC[C@H]1OCO[C@H](CN=[N+]=[N-])[C@H]2OCCOCCOc3ccccc3OCCOCCO[C@@H]21	inactive: > 100 µM
O=C1c2ccccc2/C(=N\c2ccc3ccccc3c2)C1(C1=C(c2ccccc2)/C(=N/c2ccc3ccccc3c2)c2ccccc21)c1ccccc1 (configuration not stated)	inactive: 25.4 µM
c1ccc2c3nnc(c2c1)SCCSCCCSCCS3	inactive: > 100 µM
CCOC(=N)CC(=O)Nc1ccc(Cl)cc1	inactive: > 100 µM
COc1ccc(-c2nc(Nc3ccccc3)sc2Cc2sc(Nc3ccccc3)nc2-c2ccc(OC)cc2)cc1	inactive: > 100 µM
NCCCNCCSSCc1ccccc1CSSCCNCCCN	inactive: > 100 µM
CC1CC(=O)N(N(C)C)C2(C#N)C(=O)N=C(N)C12C#N (configuration not stated)	inactive: > 100 µM
Cc1nc2sc(CCl)nn2c(=O)c1Cl	inactive: 16.9 µM
CCC1CC2C(=O)N(c3ccccc3)C(=O)C2c2[nH]c3ccccc3c21 (configuration not stated)	inactive: 38.5 µM
COc1cc2cc[n+](C)c(Cc3ccccc3)c2cc1OC	inactive: > 100 µM
C=C(Nc1ccc(OC)cc1OC)C(=O)Cc1cccc[n+]1[O-]	inactive: > 100 µM
O=C1NC(=S)N/C1=C/c1c(-c2ccccc2)[nH]c2ccccc12	inactive: 17.2 µM
S=C1NC2=C(COc3ccccc32)C(c2ccc(Cl)cc2)N1 (configuration not stated)	inactive: 16.4 µM
Cc1ccc(S(=O)(=O)N/N=C/c2oc(-c3ccccc3Cl)c(-c3ccccc3Cl)c2[N+](=O)[O-])cc1	inactive: 62.2 µM
Oc1nc2c(c(-c3ccc(F)cc3)n1)COC/C2=C\c1ccc(F)cc1	inactive: > 100 µM
CCOC(C)O[C@H]1C(=O)OCC1(C)C (some centres not stated)	inactive: > 100 µM

SMILES	GI50
COc1ccc2c(c1OC)C(=O)N/C2=C\c1c(CCN(C)C)cc2c(c1OC)OCO2	inactive: > 100 µM
O=C(Nc1cccc([N+](=O)[O-])c1)C(=O)C(C(=O)c1ccccc1-c1ccccc1)C1OC(=O)c2ccccc21 (configuration not stated)	inactive: 21.2 µM
Nc1nc2c(c(=O)[n-]1)[n+](CCO)cn2C1OC(CO)C(O)C1O (configuration not stated)	inactive: > 100 µM
O=C1/C(=C\c2ccc(-c3ccc(Cl)cc3Cl)o2)SC2NC(COc3ccc(Cl)cc3)=NN12 (configuration not stated)	inactive: > 100 µM
CCCNCCCC(NC(C)=O)C(=O)NCc1ccccc1 (configuration not stated)	inactive: > 100 µM
CN(CC(=O)O)c1ncc2c(n1)-c1ccccc1OC2	inactive: > 100 µM
O=C(C=P(c1ccccc1)(c1ccccc1)c1ccccc1)c1cccc(-c2cccc([N+](=O)[O-])c2)c1	inactive: 3.4 µM
COc1c(/C=C/C=O)cc2c(c1OC)OCO2	inactive: > 100 µM
O=C1/C(=C/c2ccccc2)CCC/C1=C\c1ccc(O)c(CN2CCCCC2)c1	inactive: 6.03 µM
NC(CO)C(=O)NCC(=O)O (configuration not stated)	inactive: > 100 µM
CC(C)(C)NC(=O)CCC1C(C(=O)NC(C)(C)C)C2(Cl)C(Cl)=C(Cl)C1(Cl)C2(Cl)Cl (configuration not stated)	inactive: 38.9 µM
CC(C)(C)[Si](C)(C)OCC1OC(n2cnc3c(=O)[nH]c(N)nc32)C(O[Si](C)(C)C(C)(C)C)C1O[Si](C)(C)C(C)(C)C (configuration not stated)	inactive: 3.64 µM
COc1ccc(CCN2CCN(CCCc3ccccc3)CC2)cc1	inactive: > 100 µM
CC(=O)OC[C@@]12C[C@H]3C(=O)C(C)(C)C[C@H]3[C@]1(C)[C@@H](OC(C)=O)[C@]1(O)[C@H]([C@@H](OC(=O)c3ccccc3)[C@@H](C)[C@H]1OC(C)=O)[C@H]2OC(C)=O	inactive: > 20 µM
O=C1c2ccccc2C(=O)c2nn(N=P(CP(=Nn3nc4c(n3)C(=O)c3ccccc3C4=O)(c3ccccc3)c3ccccc3)(c3ccccc3)c3ccccc3)nc21	inactive: > 100 µM
Cc1ccsc1/C=N/NC1=NCCN1	inactive: > 100 µM
COc1ccc(C)cc1-c1cc(Sc2ccccc2)c(-c2cc(C)ccc2OC)o1	inactive: > 31.6 µM
C[C@H]1CC[P+](Cc2ccccc2)(c2ccccc2)C1 (some centres not stated)	inactive: > 100 µM
CC1=NN(C(=O)Cc2ccccc2)C(=O)/C1=C\c1cccc(O)c1	inactive: > 100 µM
COc1cc2c(cc1OCCCCCCCCN1C(=O)c3cccc4cccc(c34)C1=O)N=C[C@@H]1CCCN1C2=O	inactive: 22.1 µM
CN1CCN(C(=S)N(C)C(=O)c2cccs2)CC1	inactive: > 100 µM

SMILES	GI50
CC(O)/C=C/C(CCC(C)CO)C(C)C (configuration not stated)	inactive: > 100 µM
Cc1ccc2c(=O)cc(Cc3csc4ccccc34)[nH]c2n1	inactive: 57.3 µM
COc1cc2c3c(cc(Cl)nc3c1OC)C(=O)C(=O)N2	inactive: 17.7 µM
Cc1ccc2c(c1)C1(C)OC(CC(N)C1O)O2 (configuration not stated)	inactive: > 100 µM
Cc1ccc(S(=O)(=O)N/N=C(/c2nc3ccc([N+](=O)[O-])cc3nc2O)C(O)c2ccc(C(O)/C(=N\NS(=O)(=O)c3ccc(C)cc3)c3nc4ccc([N+](=O)[O-])cc4nc3O)cc2)cc1 (configuration not stated)	inactive: 58.6 µM
CC(=O)OC1CC2(C)C(OC(C)=O)CC1C2(C)C (configuration not stated)	inactive: > 100 µM
COC(=O)C1=C(C)N(NC(=O)c2ccccc2)C2(O)CCCC(=O)C12C (configuration not stated)	inactive: > 100 µM
N#Cc1c(-c2ccc([N+](=O)[O-])cc2)c(C#N)c(=O)n(NS(=O)(=O)c2ccccc2)c1-c1ccccc1	inactive: > 100 µM
CCOC(=O)C(Cl)(NC(=O)c1ccc(F)cc1)C(F)(F)F (configuration not stated)	inactive: > 100 µM
Cc1ccc2nc(NC(=O)/C(=N\NC(=S)NN)C3C(=O)NC(=S)NC3=O)sc2c1	inactive: > 100 µM
O=C(O)c1cccc(OCCOc2cccc(C(=O)O)c2[N+](=O)[O-])c1[N+](=O)[O-]	inactive: > 100 µM
CCCCCCCCCCCC(=O)OCC(C[As](=O)(O)O)OC(=O)CCCCCCCCCCC (configuration not stated)	inactive: 18.5 µM
Cc1cc2oc(-c3ccccc3)c(C)c(=O)c2c2c1OC(C)(C)S2	inactive: > 100 µM
CC1=C(C(=O)OCCO[N+](=O)[O-])C(c2ccccc2[N+](=O)[O-])C(C(=O)OC(C)C)=C(C)N1 (configuration not stated)	inactive: 21 µM
CCC1(C)N=c2c(ncn2N=C(C)C)=C(C(N)=O)N1 (configuration not stated)	inactive: > 100 µM
C[C@]12CC[C@H](O)CC1=CC[C@@H]1[C@@H]2CC[C@]2(C)/C(=N/OCCN3CCCC3)CC[C@@H]12	inactive: 17.8 µM
NC(Cc1ncccn1)C(=O)O (configuration not stated)	inactive: > 100 µM
COC(=O)NN=C1C(C)(C)C(=NNC(=O)OC)C1(C)C	inactive: > 100 µM
CCOC(=N)CC(=O)Nc1cccc(C)c1C	inactive: > 100 µM
COC(=O)C1[C@H](c2ccc3c(c2)OCO3)OC(=O)[C@]1(C(=O)OC)C(=O)c1ccc(OC)c(OC)c1 (some centres not stated)	inactive: > 100 µM

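Growth conditions: 96-well plates. Treatment: test compound, 48 hours, 5 concentrations. Analysis: linear interpolation between bracketing concentrations; unreached endpoints set to highest concentration. At the GI50, growth is halved.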 Calls of active or inactive are those of the source. No stated cut-off is given here; in the data, active = GI50 up to about 1.1 µM and inactive = higher.
